# According to the supplement of paper PMC8728848:
# The list shows a part of the results.
# B1: Tulipa lectin C-1 (Tulipa hybrid) (protein)
# chain: MGMALVVALAVALASTVAGQQNVLLSGNTLANEESLSYGSVKFIMQNDCNLVLYGGGFQSNTASNGKKCTLTLNNNGHLIINDGLTGRVVWRNSNAQNPVGRYAAVLRPAPGTADVAIYGPAIWSTNDEFSYQESGVVPHKLGRETPNLPRMQNLLFSGQTLYGTDGMLSSNDGSTTFELSKCQLSLSLGNEVKWKVAPTVENGKENYCHVRLDHRGHLSLLNDDNVVLFRSIPTNGVEPPIGDYVLIVEKGAGYIYGPPIWNTYDNRRYKVASA
# Columns and labels:
# Assay in all cases: glycan array binding signal (z-score within array); higher = stronger binding
# Conditions in all cases: glycan notation: IUPAC condensed, linker removed
# [1] = molecular target: GlcNAc(b1-4)[GlcNAc(b1-6)]GalNAc
# Summary of the method: (§1)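 Columns mapping to the same glycan were averaged after glycan names were converted to IUPAC-condensed notation. The data come from 3228 arrays in the Consortium for Functional Glycomics database, limited to those with an available protein sequence. Binding is reported as a within-array Z-score averaged across arrays of one protein sequence and across linkers.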
# [2] = molecular target: GlcNAc(b1-6)Gal(b1-4)GlcNAc
# Summary of the method: as §1
# GlcNAc(b1-6)GalNAc = molecular target: GlcNAc(b1-6)GalNAc
# Summary of the method: as §1
# Kdn(a2-3)Gal(b1-3)GlcNAc = molecular target: Kdn(a2-3)Gal(b1-3)GlcNAc
# Summary of the method: as §1
# Kdn(a2-3)Gal(b1-4)GlcNAc = molecular target: Kdn(a2-3)Gal(b1-4)GlcNAc
# Summary of the method: as §1
# [3] = molecular target: Man(a1-2)Man(a1-2)Man(a1-3)Man
# Summary of the method: as §1
# [4] = molecular target: Man(a1-2)Man(a1-2)Man(a1-3)[Man(a1-2)Man(a1-3)[Man(a1-2)Man(a1-6)]Man(a1-6)]Man(b1-4)GlcNAc(b1-4)GlcNAc
# Summary of the method: as §1
# [5] = molecular target: Man(a1-2)Man(a1-2)Man(a1-3)[Man(a1-2)Man(a1-6)[Man(a1-3)]Man(a1-6)]Man(b1-4)GlcNAc(b1-4)GlcNAc
# Summary of the method: as §1
# [6] = molecular target: Man(a1-2)Man(a1-2)Man(a1-6)[Man(a1-3)]Man
# Summary of the method: as §1
# Man(a1-2)Man(a1-3)Man = molecular target: Man(a1-2)Man(a1-3)Man
# Summary of the method: as §1
# [7] = molecular target: Man(a1-2)Man(a1-3)[Man(a1-2)Man(a1-6)]Man
# Summary of the method: as §1
# [8] = molecular target: Man(a1-2)Man(a1-3)[Man(a1-3)[Man(a1-6)]Man(a1-6)]Man(b1-4)GlcNAc(b1-4)GlcNAc
# Summary of the method: as §1
# [9] = molecular target: Man(a1-2)Man(a1-3)[Man(a1-6)]Man(a1-6)[Man(a1-2)Man(a1-3)]Man(b1-4)GlcNAc(b1-4)GlcNAc
# Summary of the method: as §1
# Man(a1-3)[Man(a1-6)]Man = molecular target: Man(a1-3)[Man(a1-6)]Man
# Summary of the method: as §1
# [10] = molecular target: Man(a1-3)[Man(a1-6)]Man(a1-6)[Man(a1-3)]Man(b1-4)GlcNAc(b1-4)GlcNAc
# Summary of the method: as §1
# [11] = molecular target: Man(a1-3)[Man(a1-6)]Man(b1-4)GlcNAc(b1-4)GlcNAc
# Summary of the method: as §1
# Man(b1-4)GlcNAc = molecular target: Man(b1-4)GlcNAc
# Summary of the method: as §1
# Neu5Ac(a2-3)Gal = molecular target: Neu5Ac(a2-3)Gal
# Summary of the method: as §1
# [12] = molecular target: Neu5Ac(a2-3)Gal(b1-3)GalNAc
# Summary of the method: as §1
# [13] = molecular target: Neu5Ac(a2-3)Gal(b1-3)GalNAc(b1-3)Gal(a1-4)Gal(b1-4)Glc
# Summary of the method: as §1
# [14] = molecular target: Neu5Ac(a2-3)Gal(b1-3)GalNAc(b1-4)[Neu5Ac(a2-3)]Gal(b1-4)Glc
# Summary of the method: as §1
# [15] = molecular target: Neu5Ac(a2-3)Gal(b1-3)GalNAc6S
# Summary of the method: as §1
# [16] = molecular target: Neu5Ac(a2-3)Gal(b1-3)GlcNAc
# Summary of the method: as §1
# [17] = molecular target: Neu5Ac(a2-3)Gal(b1-3)GlcNAc(b1-3)Gal(b1-4)GlcNAc
# Summary of the method: as §1
# [18] = molecular target: Neu5Ac(a2-3)Gal(b1-3)GlcNAc6S
# Summary of the method: as §1
# [19] = molecular target: Neu5Ac(a2-3)Gal(b1-3)[Fuc(a1-4)]GlcNAc
# Summary of the method: as §1
# [20] = molecular target: Neu5Ac(a2-3)Gal(b1-3)[Fuc(a1-4)]GlcNAc(b1-3)Gal(b1-4)[Fuc(a1-3)]GlcNAc
# Summary of the method: as §1
# [21] = molecular target: Neu5Ac(a2-3)Gal(b1-3)[Neu5Ac(a2-3)Gal(b1-4)]GlcNAc
# Summary of the method: as §1
# [22] = molecular target: Neu5Ac(a2-3)Gal(b1-3)[Neu5Ac(a2-6)]GalNAc
# Summary of the method: as §1
# Neu5Ac(a2-3)Gal(b1-4)Glc = molecular target: Neu5Ac(a2-3)Gal(b1-4)Glc
# Summary of the method: as §1
# [23] = molecular target: Neu5Ac(a2-3)Gal(b1-4)GlcNAc
# Summary of the method: as §1
# [24] = molecular target: Neu5Ac(a2-3)Gal(b1-4)GlcNAc(b1-3)Gal(b1-4)GlcNAc
# Summary of the method: as §1
# [25] = molecular target: Neu5Ac(a2-3)Gal(b1-4)GlcNAc(b1-3)Gal(b1-4)GlcNAc(b1-3)Gal(b1-4)GlcNAc
# Summary of the method: as §1
# [26] = molecular target: Neu5Ac(a2-3)Gal(b1-4)GlcNAc(b1-3)Gal(b1-4)[Fuc(a1-3)]GlcNAc
# Summary of the method: as §1
binder,measurement,setting,value
B1,glycan array binding signal (z-score),[1],-0.224
same,glycan array binding signal (z-score),[2],-0.235
same,glycan array binding signal (z-score),GlcNAc(b1-6)GalNAc,-0.229
same,glycan array binding signal (z-score),Kdn(a2-3)Gal(b1-3)GlcNAc,-0.208
same,glycan array binding signal (z-score),Kdn(a2-3)Gal(b1-4)GlcNAc,-0.227
same,glycan array binding signal (z-score),[3],-0.157
same,glycan array binding signal (z-score),[4],-0.114
same,glycan array binding signal (z-score),[5],-0.209
same,glycan array binding signal (z-score),[6],-0.223
same,glycan array binding signal (z-score),Man(a1-2)Man(a1-3)Man,-0.072
same,glycan array binding signal (z-score),[7],-0.116
same,glycan array binding signal (z-score),[8],-0.179
same,glycan array binding signal (z-score),[9],-0.224
same,glycan array binding signal (z-score),Man(a1-3)[Man(a1-6)]Man,-0.225
same,glycan array binding signal (z-score),[10],-0.2
same,glycan array binding signal (z-score),[11],4.98
same,glycan array binding signal (z-score),Man(b1-4)GlcNAc,-0.214
same,glycan array binding signal (z-score),Neu5Ac(a2-3)Gal,-0.192
same,glycan array binding signal (z-score),[12],-0.232
same,glycan array binding signal (z-score),[13],-0.212
same,glycan array binding signal (z-score),[14],-0.197
same,glycan array binding signal (z-score),[15],-0.218
same,glycan array binding signal (z-score),[16],-0.208
same,glycan array binding signal (z-score),[17],-0.235
same,glycan array binding signal (z-score),[18],-0.209
same,glycan array binding signal (z-score),[19],-0.116
same,glycan array binding signal (z-score),[20],-0.142
same,glycan array binding signal (z-score),[21],-0.242
same,glycan array binding signal (z-score),[22],-0.211
same,glycan array binding signal (z-score),Neu5Ac(a2-3)Gal(b1-4)Glc,-0.223
same,glycan array binding signal (z-score),[23],-0.219
same,glycan array binding signal (z-score),[24],-0.216
same,glycan array binding signal (z-score),[25],-0.214
same,glycan array binding signal (z-score),[26],-0.239
